Assay results taken from PubChem BioAssay AID588855 (National Center for Advancing Translational Sciences (NCATS), 2011).
Out of some 410,000 compounds screened, about 5,000 (1.2%) were called active. The shares of active, inactive and inconclusive entries below differ from those in the screen. Calls come from the whole dose curve; as a rule, active = well fitted inhibition curve with a large enough effect; inconclusive = small, poorly fitted or top-dose-only effect; inactive = no such curve, though single readings can be large or run the other way. Where the call is inconclusive, the potency comes from a doubtful curve fit.

Assay: qHTS for Inhibitors of TGF-b; note: nearly all actives have a fitted effect of over 65% in size
Conditions: HepG2 CAGA-GFP TGF-b/SMAD3 reporter, GFP fluorescence, 18 h, TGF-beta stimulated, 500 pg/mL final; series mostly up to 46.1 µM; activity, negative = inhibition: at the top concentration
Summary of the method: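 First, reporter cells (HEPG2 CAGA-GFP) rested 2 h at 37 degrees C. Next, compounds were pinned in and TGF-beta added to 500 pg/mL final. After 18 h, GFP was imaged per cell and summed per well.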
% is set by controls: 0 for no effect and ±100 for the full control effect; potency is the fitted concentration of half-maximal effect; tags give direction and shape of the fitted curve.

Row | SMILES | Potency | activity, negative = inhibition
1 | CCc1ccc(CNC(=O)c2ccc(CSc3nc4ccncc4n3Cc3ccccc3)cc2)cc1 | inconclusive: 7.94 µM [inhibitor, partial curve] | 
2 | Cc1ccc(-n2c([S-])c(C(=O)NC(C)c3ccccc3)[n+]3ccccc23)cc1 (stereo unspecified) | inconclusive: 15.8 µM [inhibitor, single point] | 
3 | CC1Cc2ccccc2N1C(=O)CNc1cccc(S(=O)(=O)N2CCCC2)c1 (stereo unspecified) |  | inactive: -0.787%
4 | O=C(Nc1ccccc1N1CCN(C(=O)c2ccccc2)CC1)c1cc2ccccc2o1 |  | inactive: 18.1%
5 | O=C(CN1CCN(S(=O)(=O)c2ccc(Cl)cc2)CC1)c1ccc(O)c(O)c1 | inconclusive: 17.8 µM [inhibitor, partial curve, poor fit] | 
6 | O=C(NC1CCCc2c1cnn2-c1ccc(F)cc1F)c1cnccn1 (stereo unspecified) | inconclusive: 4.47 µM [inhibitor, full curve, poor fit] | 
7 | O=C(CN1CCC(c2nc3ccccc3s2)CC1)NCc1cccs1 | inconclusive: 3.16 µM [inhibitor, partial curve, poor fit] | 
8 | Clc1cccc(/C=N/Nc2nnc(Cl)c3ccccc23)c1 | inconclusive: 35.5 µM [inhibitor, single point] | 
9 | O=C(N/N=C/c1ccccc1O)NC12CC3CC(CC(C3)C1)C2 | active: 11.2 µM | 
10 | CCOC(=O)c1sc(NC(=O)CCN2CCN(CC)CC2)c(C(=O)OCC)c1C | inconclusive: 35.5 µM [inhibitor, partial curve, poor fit] | 
11 | COc1cc(NC(=O)CSc2nnc3n2C(C)(C)Cc2ccccc2-3)cc(OC)c1 |  | inactive: -5.56%
12 | Cc1cc(C(=O)Cn2nc(C(=O)O)c3ccccc3c2=O)c(C)n1-c1ccc(F)cc1 |  | inactive: -5.96%
13 | Clc1ccccc1-c1nc(Nc2ccccc2)nc2ccc(Br)cc12 | inconclusive: 20 µM [inhibitor, single point] | 
14 | CN1/C(=C\C=C2/C(=O)Oc3ccccc3C2=O)C(C)(C)c2ccccc21 |  | inactive: 184%
15 | CCCCOC(=O)NC1CCc2cc(OC)c(OC)c(OC)c2-c2ccc(SC)c(=O)cc21 (stereo unspecified) |  | inactive: -80%
16 | Cc1cccc(NS(=O)(=O)c2ccc(C(=O)N3CCN(c4ccccc4O)CC3)cc2)c1C | inconclusive: 35.5 µM [inhibitor, single point] | 
17 | COc1ccc(-c2cnc(C)o2)cc1S(=O)(=O)Nc1ccc(C)c(F)c1 | inconclusive: 35.5 µM [inhibitor, single point] | 
18 | FC(F)(F)c1ccccc1/C=N/Nc1ccccn1 | inconclusive: 35.5 µM [inhibitor, single point] | 
19 | O=C(O)/C=C1\NC(=O)c2ccccc21 | inconclusive: 0.501 µM [inhibitor, partial curve, poor fit] | 
20 | COc1ccc(-c2csc(NCc3ccco3)n2)cc1C | inconclusive: 7.08 µM [inhibitor, partial curve, poor fit] | 
21 | O=C1/C(=C/c2cccnc2)Sc2ccccc21 | inconclusive: 22.4 µM [inhibitor, single point] | 
22 | CCOC(=O)C1CCN(C(=O)C2COc3ccccc3C2)CC1 (stereo unspecified) |  | inactive: -26.1%

Row | SMILES | Potency | activity, negative = inhibition
23 | Cc1ccc(OCCCn2c(C3CC(=O)N(c4cccc(Cl)c4)C3)nc3ccccc32)c(C)c1 (stereo unspecified) |  | inactive: -10%
24 | COc1ccccc1S(=O)(=O)Nc1ccc(S(=O)(=O)Nc2nccs2)cc1 | inconclusive: 35.5 µM [inhibitor, single point] | 
25 | O=S(=O)(NCCc1csc(-c2ccc(F)cc2)n1)c1ccc(Cl)cc1 | inconclusive: 11.2 µM [inhibitor, partial curve, poor fit] | 
26 | COc1ccc(Cc2nc3ccc(C(=O)NC(C)Cc4ncccc4C)cc3o2)cc1OC (stereo unspecified) | inconclusive: 5.62 µM [inhibitor, single point] | 
27 | CCOc1ccccc1NC(=O)Cn1c(=O)ccc2cc(S(=O)(=O)N3CCC(C)CC3)ccc21 | inconclusive: 15.8 µM [inhibitor, single point] | 
28 | O=S(=O)(c1cccc(Br)c1)N1CCN(c2ncnc3scc(-c4ccccc4)c23)CC1 | inconclusive: 35.5 µM [inhibitor, single point] | 
29 | OC(c1ccc(F)c(F)c1)c1nc(-c2ccc3ccccc3c2)cs1 (stereo unspecified) | inconclusive: 15.8 µM [inhibitor, single point] | 
30 | Cc1ccc(NC(=O)c2ccc(N3CCCC3=O)cc2)cc1S(=O)(=O)N1CCCCC1 |  | inactive: -1.09%
31 | COc1ccccc1N1CCN(C(CNC(=O)C2CCCCC2)c2cccnc2)CC1 (stereo unspecified) | inconclusive: 6.31 µM [inhibitor, single point] | 
32 | O=C(COC(=O)C12CC3CC(CC(C3)C1)C2)Nc1ccc([N+](=O)[O-])cc1Br | inconclusive: 0.112 µM [inhibitor, full curve, poor fit] | 
33 | CCCC(C)NC1=NCCCCC1 (stereo unspecified) | inconclusive: 0.447 µM [inhibitor, full curve, poor fit] | 
34 | CCOC(=O)c1cnc2ccc(F)cc2c1Nc1ccc2c(c1)OCCO2 | inconclusive: 1.78 µM [inhibitor, full curve, poor fit] | 
35 | Cc1ccc(Oc2cc(NC(=O)CCCn3nc([N+](=O)[O-])cc3C)cc([N+](=O)[O-])c2)cc1 | inconclusive: 35.5 µM [inhibitor, single point] | 
36 | CCCCCn1c(=NC(=O)c2ccco2)c(C(=O)OCC)cc2c(=O)n3ccccc3nc21 | inconclusive: 4.47 µM [inhibitor, partial curve] | 
37 | CCN(C(=O)CN1CCCCC1C)c1c(N)n(Cc2ccccc2)c(=O)[nH]c1=O (stereo unspecified) |  | inactive: -0.627%
38 | COc1cc(CNC(=O)Nc2nc(C(N)Cc3ccc(Cl)cc3)cs2)cc(OC)c1OC (stereo unspecified) | inconclusive: 35.5 µM [inhibitor, single point] | 
39 | Cc1nc2ccc(-c3nc4ccccc4[nH]3)cc2[nH]1 |  | inactive: -1.63%
40 | Cc1ccc(-n2nnnc2Sc2ccc(S(=O)(=O)NCCN(C)C)cc2[N+](=O)[O-])cc1 | active: 1.58 µM | 
41 | Oc1ccc(/C=N/Nc2ccc(Cl)nn2)c(O)c1O | inconclusive: 35.5 µM [inhibitor, single point] | 
42 | CCn1ncc(Br)c1C(=O)Nc1cc([N+](=O)[O-])ccc1C |  | inactive: 4.8%
43 | O=c1c2sc3ccccc3c2n(Cc2ccccc2)c(=O)n1Cc1ccccc1 |  | inactive: -2.24%
44 | CCCNc1nc2c(c(=O)n(C)c(=O)n2C)n1Cc1cccc(C)c1 | inconclusive: 1 µM [inhibitor, partial curve, poor fit] | 

Row | SMILES | Potency | activity, negative = inhibition
45 | CC1(C)CC(=O)C2=C(C1)N=C1c3ccccc3C(=O)C1C2c1ccc(Cl)cc1 (stereo unspecified) | inconclusive: 35.5 µM [inhibitor, single point] | 
46 | CCOc1ccc2[nH]cc(C(=O)NCc3ccc(F)cc3)c(=O)c2c1 | inconclusive: 5.62 µM [inhibitor, partial curve] | 
47 | Cc1ccc(N2CC(C(=O)Nc3ccc(S(=O)(=O)N4CCCC4)cc3)CC2=O)cc1 (stereo unspecified) | inconclusive: 8.91 µM [inhibitor, partial curve, poor fit] | 
48 | Cc1ccc2c(CNCCc3ccc(Cl)cc3)c(C(=O)O)n(Cc3ccc(F)cc3)c2c1 | inconclusive: 3.98 µM [inhibitor, partial curve, poor fit] | 
49 | CC(=O)OCCCNc1cc(Sc2ccc(Cl)cc2)c2nonc2c1[N+](=O)[O-] | inconclusive: 6.31 µM [inhibitor, partial curve, poor fit] | 
50 | CN(C)c1ccc(/C=N/N=C(N)N)cc1[N+](=O)[O-] | inconclusive: 15.8 µM [inhibitor, single point] | 
51 | O=C1OC(Nc2ccc3c(c2)OCO3)c2ccccc21 (stereo unspecified) | inconclusive: 35.5 µM [inhibitor, single point] | 
52 | Cc1ccc(N=Nc2ccc(O)c3ncccc23)cc1 | inconclusive: 6.31 µM [inhibitor, single point] | 
53 | COc1cc(OC)c2c(-c3ccccc3)cc(=O)oc2c1C(CCN1CCCC(C)C1)c1ccc(N(C)C)cc1 (stereo unspecified) | inconclusive: 25.1 µM [inhibitor, partial curve, poor fit] | 
54 | FC(F)(F)c1ccccc1Cc1c(C2CCCCC2)nc2c3ccccc3ccn12 | inconclusive: 15.8 µM [inhibitor, single point] | 
55 | CCN(CC)CCCCN1c2ccccc2Sc2ccccc21 | inconclusive: 35.5 µM [inhibitor, single point] | 
56 | COc1cccc(-c2sc3ccc(OC)cc3c2-c2cc(F)cc(OC)c2)c1 | inconclusive: 4.47 µM [inhibitor, full curve, poor fit] | 
57 | COc1ccc(NC(=O)C(C/C=C(/C)Cl)C(C)=O)cc1 (stereo unspecified) | inconclusive: 25.1 µM [inhibitor, single point] | 
58 | Nc1nc(N)c2c(ccc3nccc32)[nH]1 | inconclusive: 1.41 µM [inhibitor, partial curve] | 
59 | O=c1cc(N2CCCCC2)c(-c2ccccc2)nn1Cc1ccccc1 | inconclusive: 35.5 µM [inhibitor, single point] | 
60 | CC1(C)Cc2c(ccc3ccccc23)C(=O)N1 |  | inactive: -11.8%
61 | CCOC(=O)c1cccc(-c2c(-c3ccccc3)ncc3cc(OC)c(OC)cc23)c1 | inconclusive: 22.4 µM [inhibitor, single point] | 
62 | COc1ccc(CCNC(=O)CCS(=O)(=O)c2ccc3c(c2)NC(=O)CO3)cc1OC |  | inactive: 4.17%
63 | CC1(Cc2ccc(Cl)cc2)C(=O)Nc2ccc(-c3ccc(F)c(Cl)c3)cc21 (stereo unspecified) | inconclusive: 28.2 µM [inhibitor, single point] | 
64 | O=C(NCCS(=O)(=O)c1ccc(Br)cc1)c1c(F)cccc1F |  | inactive: 64.6%
65 | CC(=O)c1c(O)c(C)c(O)c2c1OC1=CC(=O)C(C(C)=O)C(=O)[C@@]12C (stereo partly specified) |  | inactive: -17.1%
66 | Cc1ccc(C)c(N2CCN(C(=O)CN3C(=O)CSc4c3c(C)nn4-c3ccccc3)CC2)c1 |  | inactive: -29.3%
